# Experimental data published in the RNAGym collection of RNA variant scans (doi:10.1073/pnas.2313332121).
# This sample is rich in variants without activity.
# B1: TPR 5TU (parent)
# chain: GGAUCUUCUCGAUCUAACAAAAAAGACAAAUCUGCCACAAAGCUUGAGAGCAUCUUCGGAUGCAGAGGCGGCAGCCUUCGGUGGCGCGAUAGCGCCAACGUUCUCAACUAUGACACGCAAAACGCGUGCUCCGUUGAAUGGAGUUUAUCAUG
# Variants of: B1
# Test: polymerase ribozyme fitness, log enrichment relative to wild type (log ratio); higher = more active; in vitro selection for triplet polymerase activity
# Summary of the method: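 A single round of triplicate in vitro selection, including frozen incubation at −7 °C, was applied to PCR-built, transcribed mutant libraries of each subunit of a heterodimeric triplet polymerase ribozyme. Illumina sequencing of input and output libraries retained genotypes with ≥10 input reads and ≥1 read per output. Fitness is the base-2 logarithm of genotype enrichment divided by wild-type enrichment, from inverse-variance-weighted replicate averages.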
row,Variant,polymerase ribozyme fitness (log ratio)
1,G25A A64G G88A,≤ -4.2
2,A24G U53A C95U,≤ -4.2
3,G25U G84U U135A,≤ -4.2
4,A24G C54A A106G,≤ -4.2
5,G25C C27U U44G C72G C76A C87G,≤ -4.2
6,A24U C76U G88A G128C A142C,≤ -4.2
7,A24U U56C G62A A64G G68C G83A G124U U146A,≤ -4.2
8,A24C U31G G81C G83U G94A,≤ -4.2
9,G25C A26C A28C A49U C96U,≤ -4.2
10,A24U A29U C32G G42A U53C U55A C95A C99U,≤ -4.2
11,G25C C76U C79G C93A C118U,≤ -4.2
12,A24U A26C C27G C36G G81A A98G G136U U139G A142C,≤ -4.2
13,G25U A26G G59A C93A,≤ -4.2
14,G25U C69G G83U C95U,-3
15,A26C G42A A107C,≤ -4.2
16,A26C C36A C105G A106G A121U,≤ -4.2
17,A26G A30U C57A C95U G136A,≤ -4.2
18,G25U C27A G81A C95G,≤ -4.2
19,G25U A30U A73C C93U A138G,≤ -4.2
20,G25A A28U A52G C85G C99G U102G G136U G141A U145A U146A,≤ -4.2
21,A24C C27U A91U,≤ -4.2

row,Variant,polymerase ribozyme fitness (log ratio)
1,G25U C99U A119C A120G,-3.26
2,A24U A39C G92U U144G U148G,≤ -4.2
3,A24U C36G A37C G67C C95A A106C A107C C108G U134G U145C,≤ -4.2
4,A26C G50U C79G C85U C96U U127G U148A,≤ -4.2
5,A26C C27G A52C C72G A91U,≤ -4.2
6,G25U U33G A49C C72A C85U A91C,≤ -4.2
7,A26C G67C G133A,≤ -4.2
8,A24U C27G G50C C54G A64C G84A G86C C118G C149U,≤ -4.2
9,A26C C96U C99G C129A G140C,≤ -4.2
10,A24G G86A C99G,≤ -4.2
11,G25C U33A A91G U134C G136U,≤ -4.2
12,G25U A26C U53G C54A G68U A119C G143A,≤ -4.2
13,A24G C27G G46A C85U U134G G143C U151G,≤ -4.2
14,A24U C35A C85U C132A,≤ -4.2
15,G25C U61A C87U C103U U109G G141A U146C,≤ -4.2
16,A24U C93U A142C,-2.21
17,A24C C69G C85U G117U G141C A150U U151G,≤ -4.2
18,A26G A66G G81U G84U C96U,≤ -4.2
19,A24G C32G U78C G126U U130G,≤ -4.2
20,G25C U45C G81U G86A C93G U148C,≤ -4.2
21,A24C C32G C51G C54U U82G G84U C93G C108G G143A,≤ -4.2

row,Variant,polymerase ribozyme fitness (log ratio)
1,G25C G42A C85A U90C G133C U145C,≤ -4.2
2,G25A A52G C87A C93U A98U A106C,≤ -4.2
3,G25U A41C U130G,≤ -4.2
4,A24U A29G A52G A91U G126U U144G,≤ -4.2
5,A24U A26G A64C G84U A97U A122C,≤ -4.2
6,A24U U53G G92C C96G C118G,≤ -4.2
7,A24U C54G C75G C76U A89C C149G,≤ -4.2
8,A26G A52G U90G U135A G136C,≤ -4.2
9,A24G A29U C75U C79U C93U A106G A113G,≤ -4.2
10,A24G C36G,≤ -4.2
11,A24G A52C G58C G70U C132U,≤ -4.2
12,G25U C87G,≤ -4.2
13,A24U A30G A37C U56G G86U G117U,≤ -4.2
14,G25A G46C G83C A89U C103G G140A,≤ -4.2
15,A26G A49C A89U G92A U102G G140U,≤ -4.2
16,A24G C35U C118G U135G,≤ -4.2
17,A24G C36U A40G G59C,≤ -4.2
18,G25C A64G A113U,≤ -4.2
19,A24U U56A C57A G58A A60C A66U C96U C105U G117U A142C,≤ -4.2
20,G25C A97G,-2.53
21,A26G A147C U148A,≤ -4.2

row,Variant,polymerase ribozyme fitness (log ratio)
1,G25C A66G A106C,≤ -4.2
2,A24U C93U A119C,-1.98
3,A26C C76A,-3.75
4,G25A U82C C105G A121U,-4.07
5,A24U A29G C118U,≤ -4.2
6,A24U A30U G59A U101C U102G A121U G126C A142C,≤ -4.2
7,G25U G50C C87G G136U,≤ -4.2
8,A26C G80A G81U G94A C95G G136U G141C,≤ -4.2
9,G25C C54A C105U,-3.21
10,G25C C75A U104A A119U U134G U135A,≤ -4.2
11,A24U U55A,-0.466
12,A24U G83A A107U G152A,≤ -4.2
13,G25U A28U C54U C87U U139C,≤ -4.2
14,A24G U56C C93U A97U C103U C114U C131G A137G,≤ -4.2
15,G25C A40U G58U G67U C85A A150U,≤ -4.2
16,A24U A29G A47U U55A A73C U77G G81A A91G,≤ -4.2
17,A24U U45A U53A G81U C87G A137G G143U U146A,≤ -4.2
18,A24C G34U U44A A60G G83A C85G G88U A147U,≤ -4.2
19,A26G C27U A37G A40U G42U A122G,≤ -4.2
20,A24C U56A G68A G141A,≤ -4.2
21,A26G A89U,-4.16
